Data reported in PubChem BioAssay AID686979 (National Center for Advancing Translational Sciences (NCATS), 2013).
“And” between values parts separate entries of the source, which are not always exact repeats. Equal values may be shown once. The campaign covered roughly 420,000 compounds. About 50,000 (12%) were called active. The shares of active, inactive and inconclusive entries below differ from those in the screen. Calls follow the shape of the dose curve; as a rule, active = well fitted inhibition curve with a large enough effect; inconclusive = small, poorly fitted or top-dose-only effect; inactive = flat fitted curve, though single readings scatter. Potencies of inconclusive entries are doubtful fits and often do not repeat.

Experiment: qHTS for Inhibitors of human tyrosyl-DNA phosphodiesterase 1 (TDP1): qHTS in cells in presence of CPT; also: nearly all actives have a fitted effect of over 55% in size
Conditions: chicken DT40 Tdp1-/-;hTDP1 cells + 20 nM CPT, ATP luminescence, 48 h; activity change, negative = growth inhibition: at 46.2 µM (top of the series) unless noted
Method in brief: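 Cell growth measured by CellTiter-Glo luminescence after a minimum 48 h, 37 C compound exposure with 20 nM CPT in Tdp1-knockout DT40 cells stably expressing hTDP1, seeded 400/well; qHTS titration format.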
% is scaled to controls: 0 for no effect and ±100 for the full control effect; potency is read from the fitted curve at half-maximal effect; tags tell the direction and shape of the fitted curve.

**Q.** With `COC(=O)c1cc2oc(C)cc2n1CC(=O)Nc1cc(Cl)ccc1OC` as the molecule, how does the Potency read?
**A.** inconclusive: 18.4 µM [inhibitor, single point]

**Q.** For `O=C(CC12CC3CC(CC(C3)C1)C2)N1CCCOC1`, which Potency is on record?
**A.** inconclusive: 29.1 µM [inhibitor, single point]

**Q.** For `CCCNC(=S)N1CCN(c2nc(-c3cccc(OC)c3)cs2)CC1`, which Potency is on record?
**A.** inconclusive: 29.1 µM [inhibitor, single point]

**Q.** With `C[C@@H]1COc2cccc(N3CCN(Cc4ccccc4F)CC3)c2S(=O)(=O)N1` as the molecule, how does the “activity change, negative = growth inhibition” value read?
**A.** inactive: -8.01%

**Q.** Which Potency does the source give for `C[C@H](O)[C@@H]1C(=O)N2CCc3ccc(-c4cccc(F)c4)cc3[C@@H]2C[C@@H]1N(C)S(=O)(=O)c1ccccc1` here?
**A.** inconclusive: 18.4 µM [inhibitor, single point]

**Q.** For `COCCN1C(=O)N[C@@H](c2cccc(F)c2)C(C(C)=O)=C1C`, which “activity change, negative = growth inhibition” value is on record?
**A.** inactive: -0.0397%

**Q.** Which Potency does the source give for `CCOC(=O)C(NC(=O)c1cccc(Cl)c1)(Nc1sc2c(c1C(N)=O)CCC2)C(F)(F)F` (configuration not stated) here?
**A.** inconclusive: 29.1 µM [inhibitor, single point]

**Q.** Which Potency does the source give for `CN(C(=O)CC1C(=O)NCCN1CC(c1ccccc1)c1ccccc1)C(C1CC1)C1CC1` (configuration not stated) here?
**A.** inconclusive: 20.6 µM [inhibitor, single point]

**Q.** For `CN(CC(=O)Nc1ccc(Cl)cc1)C(=O)c1sccc1-c1ccccc1`, which Potency is on record?
**A.** active: 20.6 µM

**Q.** For `Cc1[nH]n(-c2ccccc2)c(=S)c1C=Nc1ccc([N+](=O)[O-])cc1`, which Potency is on record?
**A.** active: 13 µM

**Q.** For `Cc1ccccc1C(=O)Nc1ccc(C(=O)OCc2cc(=O)n3nc(C(C)C)sc3n2)cc1`, which “activity change, negative = growth inhibition” value is on record?
**A.** inactive: -3.44%

**Q.** Which Potency does the source give for `O=C(NC(=S)NNC(=O)c1ccccc1[N+](=O)[O-])c1ccccc1` here?
**A.** inconclusive: 23.1 µM [inhibitor, single point]

**Q.** Which “activity change, negative = growth inhibition” value does the source give for `CC1CCC(NC(=O)CN(C)S(=O)(=O)c2ccc3c(c2)CCC(=O)N3)CC1` (configuration not stated) here?
**A.** inactive: -9.85%

**Q.** With `COCCn1cnc2c1c(=O)n(Cc1ccc(C#N)cc1)c(=O)n2Cc1ccccc1` as the molecule, how does the “activity change, negative = growth inhibition” value read?
**A.** inactive: -11.9%

**Q.** For `O=C1N=C(N2CCOCC2)S/C1=C\c1ccncc1`, which “activity change, negative = growth inhibition” value is on record?
**A.** inactive: -11.5%

**Q.** With `CC1CCCCN1Cc1ccc(-c2nnn(CC(=O)NC3CCCCC3)n2)cc1` (configuration not stated) as the molecule, how does the “activity change, negative = growth inhibition” value read?
**A.** inactive: -18%

**Q.** Which Potency does the source give for `CC(C)C(N)c1csc(Nc2ccc(C(F)(F)F)cn2)n1` (configuration not stated) here?
**A.** active: 20.6 µM

**Q.** With `CC(C)=CCC1=C(O)[C@](O)(CC=C(C)C)C(=O)C(C(=O)CC(C)C)=C1O` as the molecule, how does the activity change, negative = growth inhibition read?
**A.** inactive: -35.5% [at 9.04 µM]

**Q.** With `O=C(Nc1cccc(-c2cccc(F)c2)c1)C1CCN(C2CCOCC2)CC1` as the molecule, how does the Potency read?
**A.** inconclusive: 18.4 µM [inhibitor, single point]

**Q.** For `O=[N+]([O-])c1cccc(-c2n[nH]c(=S)n2-c2ccc(Br)cc2)c1`, which “activity change, negative = growth inhibition” value is on record?
**A.** inactive: -18%

**Q.** Which Potency does the source give for `Cc1cccc(NC(=S)NNC(=O)c2ccc3c(c2)OCO3)c1` here?
**A.** inconclusive: 29.1 µM [inhibitor, single point]

**Q.** With `O=C1C=C(c2ccc(-c3ccccc3)cc2)C[C@@H](c2ccc(F)cc2)C1` as the molecule, how does the Potency read?
**A.** active: 18.4 µM

**Q.** Which Potency does the source give for `N#Cc1ccccc1Sc1ccccc1C(=O)OCC(=O)NC12CC3CC(CC(C3)C1)C2` here?
**A.** inconclusive: 20.6 µM [inhibitor, single point]

**Q.** With `O=C(O)C(C=C(Cl)Cl)N1CCOCC1` (configuration not stated) as the molecule, how does the “activity change, negative = growth inhibition” value read?
**A.** inactive: -2.3%

**Q.** Which Potency does the source give for `COc1cc(/C=N/NC(=S)Nc2cccc(S(=O)(=O)N(C)C)c2)ccc1O` here?
**A.** inconclusive: 29.1 µM [inhibitor, single point]

**Q.** For `CCC(C)NS(=O)(=O)c1ccc(NC(=O)CNCc2cccs2)cc1` (configuration not stated), which Potency is on record?
**A.** inconclusive: 14.6 µM [inhibitor, partial curve, poor fit]

**Q.** Which Potency does the source give for `CC(C)(C)SCCNS(=O)(=O)c1ccc(Cl)cc1` here?
**A.** inconclusive: 32.6 µM [inhibitor, single point]

**Q.** With `Cc1ccc(NC(=O)CC(C)S(=O)(=O)c2ccc3c(c2)NC(=O)CO3)cc1C` (configuration not stated) as the molecule, how does the Potency read?
**A.** inactive and inconclusive: 10.3 µM [inhibitor, partial curve]

**Q.** Which Potency does the source give for `CCOCCn1c(CN2CCC(Cc3ccccc3)CC2)nc2c1c(=O)n(C)c(=O)n2C` here?
**A.** active: 18.4 µM

**Q.** For `COc1ccc(-c2noc(-c3cccc(OC)c3OC)n2)cc1`, which Potency is on record?
**A.** inconclusive: 18.4 µM [inhibitor, single point]

**Q.** With `CCN1C(=O)N(c2ccc(Cl)cc2)C(C)=CC1(C)C` as the molecule, how does the “activity change, negative = growth inhibition” value read?
**A.** inactive: -13.6%

**Q.** Which Potency does the source give for `Cc1ccc(Cl)c2sc(N3CCN(C(=O)c4ccco4)CC3)nc12` here?
**A.** inconclusive: 23.1 µM [inhibitor, single point]

**Q.** With `Cc1ccccc1Nc1nc(Nc2ccccc2C)nc(SC2=NCCS2)n1` as the molecule, how does the Potency read?
**A.** active: 23.1 µM

**Q.** Which Potency does the source give for `Clc1cccc(-c2nc3c4ccccc4ccn3c2Cc2ccsc2)c1` here?
**A.** inconclusive: 23.1 µM [inhibitor, single point]

**Q.** Which Potency does the source give for `O=S(=O)(c1ccc2nc(N3CCN(c4ccccc4)CC3)ccc2c1)N1CCCCC1` here?
**A.** inactive

**Q.** For `Cc1oc2ccc(O)c(CN3CCCC3)c2c1C(=O)Nc1cccc(Cl)c1C`, which Potency is on record?
**A.** active: 16.4 µM

**Q.** Which Potency does the source give for `CC(=O)N(C(C)=O)n1c(/C=C/c2ccc([N+](=O)[O-])cc2)nc2ccccc2c1=O` here?
**A.** inconclusive: 29.1 µM [inhibitor, single point]

**Q.** For `Cc1cc(Cl)c2oc(C(=O)N3CCN(C(=O)c4ccco4)CC3)c(C)c2c1`, which Potency is on record?
**A.** active: 16.4 µM

**Q.** For `COc1ccc(/C=C/C(=O)c2ccc(O)cc2O)cc1`, which Potency is on record?
**A.** inconclusive: 11.6 µM [inhibitor, partial curve, poor fit]

**Q.** With `COc1ccc2c(CNCCc3ccccc3)c(C(=O)O)n(Cc3cccc(F)c3)c2c1` as the molecule, how does the Potency read?
**A.** inconclusive: 23.1 µM [inhibitor, single point]

**Q.** Which Potency does the source give for `CCOc1ccc(C(=O)NCC(=O)N2CCN(C/C=C/c3ccccc3)CC2)cc1OCC` here?
**A.** inconclusive: 20.6 µM [inhibitor, single point]

**Q.** For `Cc1cccc(NC(=O)CSc2nc3c(oc4ccccc43)c(=O)n2-c2ccc(F)cc2)c1`, which “activity change, negative = growth inhibition” value is on record?
**A.** inactive: -21.8%

**Q.** For `CC(=O)N1c2ccccc2-c2nc3ccccc3n2C1C` (configuration not stated), which “activity change, negative = growth inhibition” value is on record?
**A.** inactive: 0.958%

**Q.** With `CCOC(=O)/C(=N\Nc1cc(Cl)ccc1Cl)N1CCN(CC)CC1` as the molecule, how does the Potency read?
**A.** active: 20.6 µM

**Q.** Which Potency does the source give for `COc1ccc(N(Cc2cccs2)C(=O)COc2cc(C)c(Cl)c(C)c2)cc1` here?
**A.** inconclusive: 16.4 µM [inhibitor, single point]

**Q.** Which “activity change, negative = growth inhibition” value does the source give for `CCCc1c(C)nc2c(Br)cccc2c1Cl` here?
**A.** inactive: -1.98%

**Q.** For `Cc1cc(N2CCN(C(=O)c3ccco3)CC2)n2nc(-c3cccc(Cl)c3)cc2n1`, which Potency is on record?
**A.** active: 23.1 µM
